Measured values reported in PMC7948425.
These are yes or no findings as the source states them, for the method shown. In cells and extracts the contact can be indirect. Some binding calls cover weakened binding; strength is not graded here. For part of these data: Where a sequence is shown, tags or fusion partners need not be part of it.

Sequences of proteins named here, by UniProt entry; tags and fusion partners are left off.
UniProt Q9UQE7: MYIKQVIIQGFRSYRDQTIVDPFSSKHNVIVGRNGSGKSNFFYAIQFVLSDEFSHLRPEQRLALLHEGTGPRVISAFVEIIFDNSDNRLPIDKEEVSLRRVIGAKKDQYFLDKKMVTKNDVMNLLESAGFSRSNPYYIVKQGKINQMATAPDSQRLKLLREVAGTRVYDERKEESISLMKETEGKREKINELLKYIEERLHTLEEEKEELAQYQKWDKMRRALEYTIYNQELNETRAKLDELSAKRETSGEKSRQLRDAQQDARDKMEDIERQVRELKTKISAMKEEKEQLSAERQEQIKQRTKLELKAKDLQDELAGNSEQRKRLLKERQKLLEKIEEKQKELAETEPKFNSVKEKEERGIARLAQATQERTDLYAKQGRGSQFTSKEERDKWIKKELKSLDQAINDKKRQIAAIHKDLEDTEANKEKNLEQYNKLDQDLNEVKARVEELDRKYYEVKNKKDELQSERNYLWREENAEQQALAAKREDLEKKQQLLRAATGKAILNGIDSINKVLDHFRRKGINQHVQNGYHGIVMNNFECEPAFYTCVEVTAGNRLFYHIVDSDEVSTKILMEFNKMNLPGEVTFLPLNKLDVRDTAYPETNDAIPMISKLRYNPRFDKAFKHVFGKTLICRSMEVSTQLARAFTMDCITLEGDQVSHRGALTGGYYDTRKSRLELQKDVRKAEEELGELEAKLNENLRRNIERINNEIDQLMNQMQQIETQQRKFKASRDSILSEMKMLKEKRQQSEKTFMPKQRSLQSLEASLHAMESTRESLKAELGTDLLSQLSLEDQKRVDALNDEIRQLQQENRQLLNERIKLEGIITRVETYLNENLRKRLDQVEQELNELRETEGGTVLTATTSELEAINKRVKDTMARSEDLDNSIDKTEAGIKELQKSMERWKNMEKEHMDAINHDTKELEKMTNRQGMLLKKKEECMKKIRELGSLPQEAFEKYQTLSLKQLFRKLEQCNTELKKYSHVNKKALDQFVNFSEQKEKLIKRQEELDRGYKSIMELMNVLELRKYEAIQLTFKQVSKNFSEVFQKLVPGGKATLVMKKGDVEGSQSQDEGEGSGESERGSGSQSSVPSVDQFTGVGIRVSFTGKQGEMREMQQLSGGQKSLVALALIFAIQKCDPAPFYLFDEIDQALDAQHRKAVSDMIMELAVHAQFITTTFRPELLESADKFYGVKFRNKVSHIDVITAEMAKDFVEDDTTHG

Key:
[1] = molecular target: T1, SMC1A with FLAG/streptavidin binding peptide dual epitope tag, from the gene-edited endogenous allele (human (endogenous in HCT116)) (UniProt Q14683); assay: co-IP; dual-affinity purification (FLAG/SBP) from nuclear extracts (1 or 2 mg) of HCT116 epitope-tagged derivatives and parental cells, Western blot with USP13 and FLAG antibodies
T1 sequence: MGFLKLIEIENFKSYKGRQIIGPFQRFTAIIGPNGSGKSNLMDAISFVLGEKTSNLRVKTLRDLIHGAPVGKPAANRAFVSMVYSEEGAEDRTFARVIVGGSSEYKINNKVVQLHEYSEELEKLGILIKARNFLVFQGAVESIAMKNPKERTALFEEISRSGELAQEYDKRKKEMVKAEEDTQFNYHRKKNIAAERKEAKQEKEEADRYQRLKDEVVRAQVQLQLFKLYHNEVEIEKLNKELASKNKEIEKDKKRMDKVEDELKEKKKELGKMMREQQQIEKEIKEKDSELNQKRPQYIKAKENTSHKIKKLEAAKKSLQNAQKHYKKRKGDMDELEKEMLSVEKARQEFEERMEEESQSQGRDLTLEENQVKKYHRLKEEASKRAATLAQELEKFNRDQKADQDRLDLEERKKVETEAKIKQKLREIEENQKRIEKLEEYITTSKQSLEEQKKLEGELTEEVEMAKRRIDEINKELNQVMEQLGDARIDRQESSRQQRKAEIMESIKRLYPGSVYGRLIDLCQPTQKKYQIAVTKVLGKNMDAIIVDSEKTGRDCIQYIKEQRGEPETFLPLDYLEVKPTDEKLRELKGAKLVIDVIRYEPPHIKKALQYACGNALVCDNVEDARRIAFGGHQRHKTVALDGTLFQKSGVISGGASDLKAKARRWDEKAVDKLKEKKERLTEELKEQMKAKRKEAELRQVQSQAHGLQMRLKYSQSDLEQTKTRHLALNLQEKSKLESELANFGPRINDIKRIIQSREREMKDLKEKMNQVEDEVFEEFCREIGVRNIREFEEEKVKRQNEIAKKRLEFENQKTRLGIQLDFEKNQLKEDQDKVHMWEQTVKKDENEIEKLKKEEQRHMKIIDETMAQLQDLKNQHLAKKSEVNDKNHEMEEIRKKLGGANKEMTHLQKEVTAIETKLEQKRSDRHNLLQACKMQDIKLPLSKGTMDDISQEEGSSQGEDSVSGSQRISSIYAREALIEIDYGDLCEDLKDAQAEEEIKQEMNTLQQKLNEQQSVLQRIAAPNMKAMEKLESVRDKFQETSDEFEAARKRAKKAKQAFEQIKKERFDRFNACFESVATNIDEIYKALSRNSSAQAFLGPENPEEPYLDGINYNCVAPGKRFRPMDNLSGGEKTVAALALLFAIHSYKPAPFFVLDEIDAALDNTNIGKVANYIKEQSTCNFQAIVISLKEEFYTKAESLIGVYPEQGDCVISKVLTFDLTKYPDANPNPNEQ

[2] = molecular target: T2, PDS5A with FLAG/streptavidin binding peptide dual epitope tag, from the gene-edited endogenous allele (human (endogenous in HCT116)) (UniProt Q29RF7); assay: as above
T2 sequence: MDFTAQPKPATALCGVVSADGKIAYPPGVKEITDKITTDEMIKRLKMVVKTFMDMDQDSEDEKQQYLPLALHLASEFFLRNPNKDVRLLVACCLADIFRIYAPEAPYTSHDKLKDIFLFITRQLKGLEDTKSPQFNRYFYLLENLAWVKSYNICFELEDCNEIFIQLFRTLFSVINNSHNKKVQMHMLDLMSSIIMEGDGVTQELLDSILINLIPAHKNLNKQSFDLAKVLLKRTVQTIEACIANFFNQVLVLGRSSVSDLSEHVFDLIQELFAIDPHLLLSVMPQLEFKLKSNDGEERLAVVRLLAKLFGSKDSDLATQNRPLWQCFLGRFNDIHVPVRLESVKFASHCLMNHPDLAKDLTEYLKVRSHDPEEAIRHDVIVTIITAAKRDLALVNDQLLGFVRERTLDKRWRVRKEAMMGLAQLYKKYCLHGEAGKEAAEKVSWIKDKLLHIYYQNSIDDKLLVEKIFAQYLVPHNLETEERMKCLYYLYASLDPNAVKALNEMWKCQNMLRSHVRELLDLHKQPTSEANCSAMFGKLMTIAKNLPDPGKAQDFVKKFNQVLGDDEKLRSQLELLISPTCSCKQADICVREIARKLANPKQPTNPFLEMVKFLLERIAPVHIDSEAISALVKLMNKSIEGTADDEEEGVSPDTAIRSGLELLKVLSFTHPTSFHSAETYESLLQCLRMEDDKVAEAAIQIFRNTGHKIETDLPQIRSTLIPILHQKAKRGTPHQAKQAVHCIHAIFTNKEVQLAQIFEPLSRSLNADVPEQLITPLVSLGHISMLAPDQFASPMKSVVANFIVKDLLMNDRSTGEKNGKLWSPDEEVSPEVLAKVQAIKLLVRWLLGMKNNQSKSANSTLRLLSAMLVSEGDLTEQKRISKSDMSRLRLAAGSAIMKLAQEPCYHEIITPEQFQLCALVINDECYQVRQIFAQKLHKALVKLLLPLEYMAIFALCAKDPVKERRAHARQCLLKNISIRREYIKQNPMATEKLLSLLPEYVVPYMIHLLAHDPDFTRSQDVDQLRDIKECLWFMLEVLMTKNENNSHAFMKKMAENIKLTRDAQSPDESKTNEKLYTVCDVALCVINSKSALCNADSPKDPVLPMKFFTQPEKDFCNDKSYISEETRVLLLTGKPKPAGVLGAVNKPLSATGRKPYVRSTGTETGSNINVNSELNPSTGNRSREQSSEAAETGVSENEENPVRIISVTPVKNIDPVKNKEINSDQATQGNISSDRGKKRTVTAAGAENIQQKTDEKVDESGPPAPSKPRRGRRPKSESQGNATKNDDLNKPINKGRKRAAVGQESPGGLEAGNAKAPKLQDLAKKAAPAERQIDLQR

[3] = molecular target: SMC3, endogenous (human (endogenous in HCT116, 293T, HeLa, RPE-hTERT)) (UniProt Q9UQE7); assay: co-IP; SMC3 antibody (or IgG control) on whole cell lysates (500 μg) of 293T, HCT116, HeLa and RPE-hTERT cells, TBS with 0.1% NP-40, 4 °C overnight, protein A/G agarose; Western blot with USP13 and STAG2 antibodies; also 293T cells treated 20 h with DMSO, hydroxyurea, RO-3306 or nocodazole

binding [1]: binds
binding [2]: binds
binding [3]: binds
B1: Ubiquitin-Specific Protease 13 (USP13), endogenous (enzyme, UniProt Q92995 1-863)
chain: MQRRGALFGMPGGSGGRKMAAGDIGELLVPHMPTIRVPRSGDRVYKNECAFSYDSPNSEGGLYVCMNTFLAFGREHVERHFRKTGQSVYMHLKRHVREKVRGASGGALPKRRNSKIFLDLDTDDDLNSDDYEYEDEAKLVIFPDHYEIALPNIEELPALVTIACDAVLSSKSPYRKQDPDTWENELPVSKYANNLTQLDNGVRIPPSGWKCARCDLRENLWLNLTDGSVLCGKWFFDSSGGNGHALEHYRDMGYPLAVKLGTITPDGADVYSFQEEEPVLDPHLAKHLAHFGIDMLHMHGTENGLQDNDIKLRVSEWEVIQESGTKLKPMYGPGYTGLKNLGNSCYLSSVMQAIFSIPEFQRAYVGNLPRIFDYSPLDPTQDFNTQMTKLGHGLLSGQYSKPPVKSELIEQVMKEEHKPQQNGISPRMFKAFVSKSHPEFSSNRQQDAQEFFLHLVNLVERNRIGSENPSDVFRFLVEERIQCCQTRKVRYTERVDYLMQLPVAMEAATNKDELIAYELTRREAEANRRPLPELVRAKIPFSACLQAFSEPENVDDFWSSALQAKSAGVKTSRFASFPEYLVVQIKKFTFGLDWVPKKFDVSIDMPDLLDINHLRARGLQPGEEELPDISPPIVIPDDSKDRLMNQLIDPSDIDESSVMQLAEMGFPLEACRKAVYFTGNMGAEVAFNWIIVHMEEPDFAEPLTMPGYGGAASAGASVFGASGLDNQPPEEIVAIITSMGFQRNQAIQALRATNNNLERALDWIFSHPEFEEDSDFVIEMENNANANIISEAKPEGPRVKDGSGTYELFAFISHMGTSTMSGHYICHIKKEGRWVIYNDHKVCASERPPKDLGYMYFYRRIPS
